This is one part of the list.
B1: chr12:16048344:16048345:+_ENSG00000023734_ENST00000419869|hu_hu|hu_hu_hu_mus_True|18_68 (ssRNA)
RNA: GGGAGUUCUACAGUCCGACGAUCAGAUCGUCCAUAAGUAAUAACCAAAAUCUCUCCUUCAGGAAUAUAUUCCAUACUGCUAACAGACAUAUUAAAAUUCAGAGAUUUCACUUCUGUCAUAGUAGCAUGAUCCCAGAGCCGAACCAACAGAGGAUUGAGCAUCA
B2: chr1:88243738:88243739:-_ENSMUSG00000026234_ENSMUST00000027438|mus_mus|motif|central (ssRNA)
RNA: GGGAGUUCUACAGUCCGACGAUCCAUGAGUUCAAUCCCCAGUAAUCACAUGGUGGCUCUCAAUAAUCUGUAAUGGGAUUCGGUGCCCUCUUCUGGUGUGUCUGAAGACAGCUACAGUGUACUCAUAUACAUAAAAUAAAAAUCCAACAGAGGAUUGAGCAUCA
B3: chr3:100366718:100366719:-_ENSMUSG00000008763_ENSMUST00000008907|mus_hu|motif|central (ssRNA)
RNA: GGGAGUUCUACAGUCCGACGAUCAUUCUUAAAGAAAAAUCUAUUAUCUGUUAGCAUGAUUGGAGCACUGCAAUGUAUAUGCGGGUAAUAUGGUGUGUAAUUUCACAAGCAAUUUUAUGAGUUCUGCAAUUGCUAGGCUCAAACCAACAGAGGAUUGAGCAUCA
B4: chr20:42825305:42825306:-_ENSG00000132823_ENST00000255174|hu_hu|motif|central (ssRNA)
RNA: GGGAGUUCUACAGUCCGACGAUCAUUAAAUCAGAGACGGUUUAAAUCAGUCUUGUAACUUCUAAUAUUCUGGGCUGGCAACGGCAGCAUGACAAAUGUUUAGUGCAGUUACAAAAUCACAUUUUACUUUCCUUGGCUAGCAAACAACAGAGGAUUGAGCAUCA
B5: chr16:2758876:2758877:+_ENSG00000167977_ENST00000301738|hu_mus|FALSE|FALSE (ssRNA)
RNA: GGGAGUUCUACAGUCCGACGAUCAAGUUUUAAUAUCAUUAAAUUAAAAAAACAGAAACAAAAACCCCCAGAAGCCUAUCUAUUGUCAAAGUCAUAAAUGAAGCAAUGCUGAGUGUCCAGCCACUCCCCAGAGCAUCCCCAUGGCAACAGAGGAUUGAGCAUCA
B6: chr12:103220134:103220135:+_ENSMUSG00000041781_ENSMUST00000047357|mus_hu|motif|central (ssRNA)
RNA: GGGAGUUCUACAGUCCGACGAUCGAAAGGGUAGUUAAUUUGAUAAUAGACGUCAUUUUUUUUGGUCCAGAAACAGCAAGCGGGAAGAGUUGAUAUCUUAGUCGUAUAUAUGAUGAAACACCAGGAAUUCUGAAGAGUUCUUUACAACAGAGGAUUGAGCAUCA
B7: chr1:163112212:163112213:-_ENSG00000143248_ENST00000313961|hu_hu|hu_hu_hu_mus_False|78_98 (ssRNA)
RNA: GGGAGUUCUACAGUCCGACGAUCUUUUAUUAUCAGUAAGCAUGAGUUACAUACUAGAUAAAGUAUUGGAUACAAUAAUCAGGAAACAAACACUAUUGGUCCAGAAUUUAAAACUUUAUGAGCGAAGUGCUGGCACAGGACUUACAACAGAGGAUUGAGCAUCA
B8: 14279964_14280084_3095_CDS_ENSMUSG00000039219_ENSMUST00000039538|mouse|control|control (ssRNA)
RNA: GGGAGUUCUACAGUCCGACGAUCCUGACUAGCUUCUGUUAUAGUGACUGAAGAAGGCGACUCUGGUGUGGUAGGUGGGGUAUUGAGCACUGAAUUACUGCCACUGCUCGGAAAUUCUGUUUUCCUAUCACUAACUUCUAGGGGCAACAGAGGAUUGAGCAUCA
B9: chr15:4003764:4003765:+_ENSMUSG00000022186_ENSMUST00000110690|mus_mus|FALSE|FALSE (ssRNA)
RNA: GGGAGUUCUACAGUCCGACGAUCAUAUUUGAUGGGUGAUCCUCCUUCCUGUACCAGAGUCCCAUACCCUGUGCUGGUGUAGAAGGCAGGGACUCCAGCUCCACCGGCACGGAUCCUCUCGGCAAGUGUGCCCUGAGGUGUCAGCAACAGAGGAUUGAGCAUCA
B10: chr1:220273833:220273834:+_ENSG00000067704_ENST00000302637|hu_hu|FALSE|FALSE (ssRNA)
RNA: GGGAGUUCUACAGUCCGACGAUCAUCCCAGCCGGGCACAAAAUGUAUUUUGGAGCCAUUCAUCAUAUGGAAUCGAUUGGCUAUGUCUUUCAAAAUCUUAUUUAAAGCAUGUCCAACAUGAGGGUCACCGUUUGCAUAAGGAGGCAACAGAGGAUUGAGCAUCA
B11: chr12:3367242:3367243:+_ENSMUSG00000020668_ENSMUST00000020999|mus_mus|FALSE|FALSE (ssRNA)
RNA: GGGAGUUCUACAGUCCGACGAUCGUUAUCAUCUUCCUCUUCGGCCACCCAGGCCUCAAUCACGGACCCCUCUGGAUAGCCGGCUGGGGCAGACACGGCCUUCUUUCUACGACUGCUCUUUCUCCGAGGUCGCUUGCCCAGCAUCAACAGAGGAUUGAGCAUCA
B12: chr11:50193004:50193005:+_ENSMUSG00000007850_ENSMUST00000069304|mus_hu|FALSE|FALSE (ssRNA)
RNA: GGGAGUUCUACAGUCCGACGAUCUGAUUCAAGUUCAACAAAAGCCUCGCCACUUGGUCUGCCUUCUCUGGUGUAGAUGAAACGAAUACCUUGAGCCCCAUUUUGAAUUUUGCAGUCAGAAAAAAACCUCUGCACUUCAUCGGCCAACAGAGGAUUGAGCAUCA
B13: chr6:41757443:41757444:+_ENSG00000214736_ENST00000398881|hu_mus|hu_hu_hu_mus_False|8_58 (ssRNA)
RNA: GGGAGUUCUACAGUCCGACGAUCGAACCGUGCAGAGGCAACAUCUCAGCCGACACUGGGGGAUGGGGGGGCAGUGGGAAACUAGGCAGGCAAGGAGAGGGAGUCAACUUCAGCUGCCACUCAGGUAGCUGCCAUCAGUCACAGCAACAGAGGAUUGAGCAUCA
B14: chr2:232320318:232320319:-_ENSG00000115053_ENST00000322723|hu_hu|hu_hu_hu_mus_True|18_108 (ssRNA)
RNA: GGGAGUUCUACAGUCCGACGAUCACUGUUGAAGUCUACAAAACCAAACCCUUUGGAAGAACCAGUUUCCCGAUCAGUGACUAUUCUUGCACGAACAGAGCCCUCAAAUGAUUCUUUUAAUGUCUCUUCAGUGGUAUCCUCAGACAACAGAGGAUUGAGCAUCA
B15: 7371406_7376421_261_ncRNA_ENSMUSG00000031153_ENSMUST00000132456|mouse|control|control (ssRNA)
RNA: GGGAGUUCUACAGUCCGACGAUCGCAAAGCUUGCUGAACUCGGCCAUAAGUGUACUGUUCUGCAAACGGAAGUCCUCCUCCUGGCUGUGCAGCUUUGCCUGCAGCAUCUCAUUUUCACUCAGCAGUACCUCCACUUCCUGAGCCAACAGAGGAUUGAGCAUCA
B16: 64764304_64764424_3119_3pUTR_ENSMUSG00000059920_ENSMUST00000076991|mouse|control|control (ssRNA)
RNA: GGGAGUUCUACAGUCCGACGAUCUUUUUCAAAAGAAAACAUAAAGUAUAAAAUCAAACUGAAUUUCCAAAACCCAAGUAGAGGUAGAAAGUGGAUAAGAAUGUGAUCUGGUUGUUUUGCCUUAUAAACAAGAAAAUUAUUUUUCAACAGAGGAUUGAGCAUCA
B17: chr17:33883638:33883639:-_ENSMUSG00000077450_ENSMUST00000057373|mus_mus|FALSE|FALSE (ssRNA)
RNA: GGGAGUUCUACAGUCCGACGAUCGCAACAGUGCAAGGGCUACAGGGAGAAUAAGAGUUCGAGAGCUGGGGUUUGGCGUAAAUUUUACAAAGUGUAUAAAGAAUCUGUUCUCUACAAUAACAAAAACCAAAGGCUACAAGAGCACAACAGAGGAUUGAGCAUCA
B18: 57906712_57908587_2126_CDS_ENSG00000166986_ENST00000262027|human|control|control (ssRNA)
RNA: GGGAGUUCUACAGUCCGACGAUCAUGGGCCAGCAGGCGCUGAUCAUCAGGGGUGAGCACCAUCUCAGGCACAUAGCCCCCAAAGAACUUAGACACAAACAUCCCAGCUCUGUUGAUGAAGUUGCCCAGGUUGUUAAGCAGCUCCAACAGAGGAUUGAGCAUCA
B19: chr2:228220401:228220402:+_ENSG00000168958_ENST00000354503|hu_mus|FALSE|FALSE (ssRNA)
RNA: GGGAGUUCUACAGUCCGACGAUCUAAUGAAGCUGCAUCUACCACAGUCAUGUCAUCUGAAGCUCCUUCAAUGGCUGCAUCUAGGUUUGAAAUGCCAUACCUGACGUUGUCAUGAUGAGGAUUAGAAGUGGCGGCAGCUGACCCCAACAGAGGAUUGAGCAUCA
B20: chr16:45382771:45382772:-_ENSMUSG00000022661_ENSMUST00000163230|mus_mus|mus_mus_mus_hu_True|98_98 (ssRNA)
RNA: GGGAGUUCUACAGUCCGACGAUCCUGGGUCAUGUUAUGGGCCCAAUGGACAGGGAGGGCAUGCUUCUCAAAAAAUGUGAGCUAUUGUCUAAGACUAACAAUAUUUAUCUAGCUAUAAAAAUAAGUUAAAUGAAUAAGUUAAGACAACAGAGGAUUGAGCAUCA
B21: chr7:75932113:75932114:+_ENSG00000106211_ENST00000248553|hu_hu|hu_hu_hu_mus_False|28_108 (ssRNA)
RNA: GGGAGUUCUACAGUCCGACGAUCCUGCGACCACUCCUCGGGCAACCGGGGCACCCCGAAAGCUUGAUCGAAGAGGCGGCUGUGUGCAGGGUACCAGUCCCGGAAUGCCCAGCUGGGCGGGCUCCGCAGCAGCGAGAAGGGCACCAACAGAGGAUUGAGCAUCA
B22: chr7:54825262:54825263:-_ENSG00000132432_ENST00000352861|hu_hu|hu_hu_hu_mus_False|1_38 (ssRNA)
RNA: GGGAGUUCUACAGUCCGACGAUCCUGCCGGCUGGGCUCCACAAACUGCAUUACCUGAUCCAUGUUUGUUGGAUGGCGGAUUGAGAGCGUAGAGACAACGUAGCACUGAGAGAACCGAGCCCAACGGAACCGGAAGCGGAAUCCCAACAGAGGAUUGAGCAUCA

target: T1, UNK ZnF1-3 (human, UniProt Q9C0B0 31-174); assay: nsRBNS (natural sequence RNA bind-n-seq); RBNS binding buffer (assumed for nsRBNS): 25 mM Tris pH 7.5, 150 mM KCl, 3 mM MgCl2, 0.01% Triton X-100, 500 ug/ml BSA, 20 U/ml SUPERase-In, 4 C; UNK is unkempt and MSI1 is Musashi-1; names of the RNAs are library labels; protein concentration not given here; high values mean tight binding
T1 sequence: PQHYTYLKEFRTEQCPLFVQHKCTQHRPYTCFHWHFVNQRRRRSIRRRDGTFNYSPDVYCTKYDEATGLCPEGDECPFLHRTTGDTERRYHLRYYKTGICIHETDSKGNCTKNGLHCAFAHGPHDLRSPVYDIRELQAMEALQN

| Binder | binding signal |
| --- | --- |
| B1 | 0.875 enrichment R |
| B2 | 1.99 enrichment R |
| B3 | 1.12 enrichment R |
| B4 | 0.934 enrichment R |
| B5 | 2.83 enrichment R |
| B6 | 2.09 enrichment R |
| B7 | 1.44 enrichment R |
| B8 | 1.07 enrichment R |
| B9 | 0.471 enrichment R |
| B10 | 1.6 enrichment R |
| B11 | 0.614 enrichment R |
| B12 | 1.26 enrichment R |
| B13 | 2.26 enrichment R |
| B14 | 0.906 enrichment R |
| B15 | 0.708 enrichment R |
| B16 | 2.02 enrichment R |
| B17 | 2.05 enrichment R |
| B18 | 1.33 enrichment R |
| B19 | 0.738 enrichment R |
| B20 | 1.31 enrichment R |
| B21 | 0.588 enrichment R |
| B22 | 1.33 enrichment R |

— article PMC12136788
